About 540 (0.36%) of roughly 150,000 compounds showed an effect of 50% or more. The list shows a part of the results.
Tested on: Plasmodium falciparum
Assay: Primary screen in NF54 nanoGlo assay, in single point, at 2uM, 72h; a lower Z score goes with more inhibition
Format: functional, Erythrocyte
Settings: timepoint 72 hour

| SMILES | % Inhibition [%] | Z score |
| --- | --- | --- |
| Fc1ccc([C@@H]2CCN2CCc2ccccn2)cc1 | 4 | -0.79 |
| CC(C)c1nc([C@H](C)NC(=O)c2ccnc(N(C)C)c2)cs1 | -8 | 1.07 |
| CCOC(=O)c1cccnc1NCc1ncccc1F | 3 | -0.52 |
| CC1(C)C(=O)NCCN1C(=O)NC1CCCCC1 | -6 | 0.9 |
| COc1ccc(OC)c2[nH]c(C(=O)N(C)C[C@@H]3CCCN4CCCC[C@H]34)cc12 | 3 | -0.41 |
| C[C@@H](c1ccc(Cl)cc1)N(C(=O)Cn1cc(C(=O)O)cn1)C1CC1 | -23 | 2.73 |
| CNC(=O)C1CCCC1Nc1ccn2c(C(=O)OC)cnc2n1 (stereo unspecified) | -1 | 0.15 |
| Cc1cc(NCc2csc(C3CC3)n2)ccc1C(F)(F)F | -4 | 0.53 |
| O=C(NCc1ccc(F)cc1)c1cc2n(n1)CCN(Cc1ccc(Cl)cc1)C2=O | -18 | 3.45 |
| O=C(NCC1CC1)[C@]1(F)CCCN(Cc2cccnc2)C1 | -1 | 0.23 |
| Cc1ccncc1Cc1nc(-c2ccc(S(=O)(=O)NCC(C)C)cc2)no1 | 4 | -0.8 |
| O=S(=O)(Nc1cnc(C2CC2)nc1)c1c(F)cccc1Cl | -9 | 1.77 |
| CC1CC(NC(=O)c2cncn2-c2ccc(-c3ccc(F)c(F)c3)cc2)CC(C)(C)C1 (stereo unspecified) | -14 | 1.8 |
| CC1=C(C(=O)Nc2cccc([C@@H]3CNC(=O)C3)c2)CCC1 | -13 | 1.08 |
| C[C@@H](NC(=O)c1cccc(F)c1)C(=O)NCc1cscn1 | 3 | -0.34 |
| O=C(Nc1ccnn1C1CCCCC1)c1ccoc1 | 0 | -0.03 |
| Cc1c(CN(C)c2nc3c(c(=O)[nH]2)Cc2ccccc2OC3)cnn1C | -1 | 0.1 |
| COc1ccc(NC(=O)Cn2cnc3c(-c4ccccc4)nsc3c2=O)cc1Cl | -7 | 1.22 |
| COc1c(NC(=O)Nc2cc(-c3ccccc3)ns2)c(C)nn1C | -4 | 0.43 |
| O=C(N[C@H]1CCS(=O)(=O)C1)c1cc(N2CCCC2)ncn1 | -5 | 0.93 |
| COc1ccccc1C1(CNC(=O)COc2ccccc2)CCOCC1 | -10 | 1.39 |
| COCCNC(=O)[C@H]1O[C@H](CCN2CCN(c3ccccc3)CC2)CC[C@@H]1O | 17 | -1.98 |

| SMILES | % Inhibition [%] | Z score |
| --- | --- | --- |
| Cc1ccc(-n2nc(C(=O)N3CCN(C)CC3)c(=O)n(Cc3ccccc3)c2=O)cc1C | -10 | 0.91 |
| CCOc1c(Br)cc(/C=C(/NC(C)=O)C(=O)O)cc1Br | 36 | -1.3 |
| S=c1oc2cc(Cl)ccc2n1CN1CCN(c2ccccn2)CC1 | -5 | 0.89 |
| C[C@H]1OCCN(Cc2ccc3c(c2)CCO3)[C@@H]1C(N)=O | -14 | 1.21 |
| CC[C@H]1CN(S(=O)(=O)c2ccc3c(c2)OCCO3)CCO1 | -11 | 1.03 |
| CCc1nn(C)cc1CN1CCn2cccc2[C@@H]1CC | -7 | 0.69 |
| O=C(NCCn1ccnc1)c1cc(=O)c(OCc2ccccc2)c[nH]1 | 0 | -0.03 |
| O=C(CN1CCC(Cn2c(COc3ccccc3)nc3ccccc32)CC1)Nc1nncs1 | 13 | -1.47 |
| CC(C)c1ccnc(N[C@H](C(=O)N(C)C)C(C)C)n1 | -31 | 2.77 |
| CCN1CCN(C(=O)NC2CC(C)(F)C2)CC1=O (stereo unspecified) | 6 | -0.81 |
| CCCCN1CCOC[C@H]1c1nc(-c2ccc3c(c2)CCO3)no1 | 3 | -0.37 |
| CC1CN(C(C(=O)N2CCCN(C(N)=O)CC2)C(C)C)CC(C)O1 (stereo unspecified) | 6 | -0.99 |
| COC(=O)C1(NC(=O)OC(C)(C)C)CC(CN2CC[C@H](F)C2)C1 (stereo partly specified) | -9 | 1.38 |
| NC(=O)C1CCN(C(=O)C2CC3CCC2C3)C1 (stereo unspecified) | -14 | 1.58 |
| Cc1nc(C(=O)N2CCn3nc(CCC(=O)NC(C)C)cc3C2)cs1 | -17 | 3.34 |
| CCc1cc(CN(C)CCc2nccn2C)on1 | 6 | -1 |
| COC(=O)N[C@@H](C)c1nc(C)nn1-c1cccnc1 | -11 | 1.25 |
| COc1c(F)cccc1CN1CCC([C@H](C)N2CCCC2)CC1 | -7 | 0.88 |
| Cc1cccc(N(CC(=O)Nc2ccccc2C(=O)NCc2ccco2)S(C)(=O)=O)c1 | 5 | -0.75 |
| c1cc2oc(C3CCCCC3)nc2cc1Cc1ccc2oc(C3CCCCC3)nc2c1 | -5 | 0.55 |
| N[C@@H]1CCN(C(=O)CCc2nc3cc(Br)ccc3s2)C1 | -7 | 1.07 |
